Reference: the supplement of paper PMC10126150
Sequences with one replicate were seen in a single cluster, so their values are uncertain.

System: ATP
Assay: switch fluorescence ratio, 500 uM ATP over buffer (Cy3 cluster intensity, sum of 5 cycles each) (fold (ratio)); higher = stronger signal-on switching upon ATP binding; sequences stand for … in TCGTCGGCAGCGTCAGATGTGTATAAGAGACAGTTTTTTTTTTTTTTTTTTTTTTTTT…TC
Settings: aptamer strand: ATP DNA aptamer (quencher-CACCTGGGGGAGTATTGCGGAGGAAGG + anchor), 100 nM annealed; ATP concentration: 500 uM; one replicate
How it was run: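 Per cluster, summed Cy3 intensity from the target cycles was divided by that from the buffer cycles to give the fluorescence ratio, then averaged per switch-domain sequence. Clusters outside 100-1000 RFU were excluded. The Cy3-labelled switching-strand clusters, on a modified Illumina MiSeq flow-cell, were annealed to 100 nM quencher-labelled ATP aptamer and imaged in selection buffer, then after 15 min with 500 uM ATP at 22 °C, for five cycles with NaOH stripping and re-annealing between them.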
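Note: ATP exposure 15 min at 22 °C before imaging.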

Row | Sequence | switch fluorescence ratio
1 | TAAGCGAAAC | 1.18
2 | GACAAAGCCG | 1.11
3 | GGATTTATTA | 1
4 | TATATGCCTC | 0.962
5 | AGGATGGGCT | 0.96
6 | AATTTACGTA | 1.12
7 | TTTAGTTTTA | 0.978
8 | GGGGGCTAAC | 0.975
9 | CTTGGCCGTG | 1
10 | TATGCTGGAC | 1.01
11 | TTCACCCGCC | 1.13
12 | AGGCCGAGGC | 0.94
13 | AATCAGTCA | 0.99
14 | TGGCCCACGT | 0.997
15 | CATGGAACTC | 0.984
16 | CCTTGTTGAG | 1.07
17 | GTTTCATCTT | 1.04
18 | CTACACGGTT | 1
19 | ACTGGTAACA | 1.03
20 | CGCATAGGGG | 1.29
21 | CGATCTGGA | 0.997
22 | GAACTGCAGG | 0.976
23 | AAGGTCATG | 0.958
24 | TCACCGATGG | 0.98
25 | GTCAGGCCCT | 0.989

Row | Sequence | switch fluorescence ratio
26 | GACGTGGGGG | 1
27 | TAGAGGGTGG | 0.972
28 | ATAAGCAGTG | 1.01
29 | ACATTAACAG | 1.06
30 | ATATGGGAAC | 0.987
31 | GAGATGAGTT | 0.998
32 | GCGAACTGGG | 1.19
33 | CCACTGCTCG | 1.13
34 | TTACAATCGT | 0.949
35 | GAGGTCTGCT | 1.01
36 | CTCACACGGA | 1.04
37 | AGCCCGGTAT | 1.25
38 | TCGTCCAAAG | 1.11
39 | AGGTAGAACG | 0.988
40 | GTAGTTTCTA | 0.968
41 | CTGTGTGAGA | 1.03
42 | TGTGCTTTAG | 1.02
43 | TTACATTGGC | 1.08
44 | TGCCGTTTGA | 1.01
45 | CAACACTTAA | 1.03
46 | AAACTAGGTG | 1.76
47 | GCGACCTATC | 1.13
48 | ATATCACCCT | 1.07
49 | ATATGGTAGG | 1
50 | AGAGAGGGGG | 0.976

Row | Sequence | switch fluorescence ratio
51 | GGGTGGTCCA | 0.998
52 | GCATTGCTAG | 1.03
53 | GCGGGTTCGG | 0.971
54 | TCGAGTGAAG | 1.01
55 | AGACAGAAGG | 0.985
56 | CAATGCTGGG | 1.01
57 | AAAGTACATA | 1.2
58 | ATAGGTTGGA | 1
59 | TGCATTGCGC | 0.999
60 | ACCGTCATGG | 1.04
61 | ACCGACCAAT | 4.72
62 | AACGTAAGG | 1.11
63 | TTGCTACCCC | 1.23
64 | GGAATATTTA | 0.985
65 | AATGGGACCA | 1.15
66 | ATACGGACAG | 1.31
67 | TGAATAAACG | 1.04
68 | TCATTTCCCC | 1
69 | TGGGCATTCT | 1.05
70 | GCGTCTAACC | 1
71 | GTGCTCCGGA | 1.05
72 | CGGACTAGCT | 1.05
73 | TATCTTTGGT | 1.01
74 | TCGATAGATG | 0.994
75 | ACCTGCAACA | 1.4

Row | Sequence | switch fluorescence ratio
76 | AAGTACGTAC | 1.27
77 | ATCAAAACAC | 1.06
78 | CGTCACGTTG | 0.991
79 | AATTGGCTT | 1.34
80 | AGGTCCAGAG | 0.976
81 | AGCAAGCTGA | 1.1
82 | ATCGTCGCTG | 0.994
83 | TAGGCAAGGC | 1.34
84 | CATTAACTGC | 0.939
85 | TAGCCTAACT | 0.986
86 | GGGAAATGAC | 1.06
87 | CACGTATGAG | 1.05
88 | TCTCTTGGC | 1.04
89 | TTAGTGTTGG | 0.995
90 | CATCCTTTCT | 1.06
91 | ATCTTAGATC | 0.992
92 | GGATGAGAGT | 0.97
93 | TAGGTGTCTT | 1
94 | AGGCTGGTCG | 0.9
95 | GTTGTTAACA | 1.01
96 | CTCTATGGGC | 1.18
97 | TGATTGCTAA | 1.02
98 | TCAGTATTTA | 0.971
99 | ACCATTCTT | 0.982
100 | GATGATTTAG | 0.997
